The supplement of paper PMC3334620
In all, about 33,000 sequences were measured (“E-score (-0.5 to 0.5)”: median about -0.041, highest 2% from about 0.37 on). The list shows a part of the results.

target: T1, Ecm22 (UniProt Q05958); test: PBM E-score (8-mer binding enrichment) (E-score (-0.5 to 0.5)); higher = stronger / more preferred TF binding; most listed sequences are background and not binding sites; settings: protein concentration: 200 nM; construct: GST-full length
T1 sequence: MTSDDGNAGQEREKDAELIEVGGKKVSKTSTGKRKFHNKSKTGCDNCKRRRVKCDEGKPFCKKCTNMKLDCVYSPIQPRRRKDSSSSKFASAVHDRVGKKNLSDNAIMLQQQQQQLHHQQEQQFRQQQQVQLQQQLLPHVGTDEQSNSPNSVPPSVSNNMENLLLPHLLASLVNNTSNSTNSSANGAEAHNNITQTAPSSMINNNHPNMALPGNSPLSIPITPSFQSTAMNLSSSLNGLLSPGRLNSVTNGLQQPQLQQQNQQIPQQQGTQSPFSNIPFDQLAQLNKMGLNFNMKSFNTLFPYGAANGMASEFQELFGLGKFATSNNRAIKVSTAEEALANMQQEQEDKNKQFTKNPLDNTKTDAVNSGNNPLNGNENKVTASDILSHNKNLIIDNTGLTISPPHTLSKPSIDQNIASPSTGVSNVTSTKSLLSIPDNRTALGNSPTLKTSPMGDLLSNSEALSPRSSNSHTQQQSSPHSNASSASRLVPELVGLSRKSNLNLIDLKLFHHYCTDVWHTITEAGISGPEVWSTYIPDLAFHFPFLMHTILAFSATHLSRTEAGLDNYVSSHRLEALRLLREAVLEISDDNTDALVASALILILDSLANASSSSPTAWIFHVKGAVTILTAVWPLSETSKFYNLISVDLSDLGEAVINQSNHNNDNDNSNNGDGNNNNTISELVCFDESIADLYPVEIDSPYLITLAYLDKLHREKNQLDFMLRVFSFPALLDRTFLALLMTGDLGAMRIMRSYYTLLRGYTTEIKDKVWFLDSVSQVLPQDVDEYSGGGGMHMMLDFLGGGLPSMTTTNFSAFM
Procedure, shortened: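 GST-tagged yeast TFs (full-length or DNA-binding domain) were made by PURExpress in vitro transcription/translation and applied at about 100-200 nM to universal all-10-mer Agilent arrays. The arrays were made double-stranded by primer extension, on fresh or once-stripped slides. Bound protein was detected with fluorescent anti-GST, and scans were normalised with masliner. Each ungapped eight-base word, pooled with its reverse complement, received an E-score (modified Wilcoxon-Mann-Whitney statistic) from the Universal PBM Analysis Suite.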

| Sequence | PBM E-score |
| --- | --- |
| GCTGATAA | 0.0164 |
| CGGAAAAC | 0.141 |
| CATAGATC | -0.186 |
| GAGCGGTA | 0.117 |
| CTTCGTCC | -0.243 |
| ACAAAAGA | 0.159 |
| ATGGGTAC | 0.0792 |
| TAAAGCGA | 0.213 |
| AGTTTAGG | -0.245 |
| AACCATCT | -0.106 |
| CACGATGC | 0.136 |
| TCTTGTCA | -0.211 |
| TAAATTTA | 0.232 |
| CGATAATA | 0.0859 |
| GATCACTA | 0.1 |
| AACGTCCG | 0.0477 |
| CGTCCGTC | -0.115 |
| AGTCCGCA | -0.0943 |
| CTTCGACC | -0.131 |
| AATTTGCC | -0.212 |
| ATACCAAT | -0.00609 |
| GATTAGCC | 0.0338 |

| Sequence | PBM E-score |
| --- | --- |
| CAATGCCG | -0.191 |
| AAATACGG | 0.265 |
| TATTCTCA | -0.146 |
| CCCTAGTC | -0.295 |
| AGGCTCTC | -0.162 |
| CCACCGTA | 0.34 |
| CTGACGCA | -0.319 |
| GAAGGCTC | -0.174 |
| ATAAGAAC | 0.0216 |
| CACATGAA | -0.0421 |
| TCTTCGAA | 0.108 |
| CTAAGAAC | -0.00855 |
| ATCAGCGG | 0.00773 |
| AACTTATA | 0.199 |
| ACGAGTAG | 0.38 |
| CAGCACGG | -0.184 |
| GCAGTGAA | 0.0776 |
| AACGGTGT | 0.247 |
| CAGTACTC | -0.142 |
| CACACATA | -0.177 |
| CCGTGACC | -0.312 |
| CTGTGCAA | -0.132 |

| Sequence | PBM E-score |
| --- | --- |
| CCTGAGCG | -0.00786 |
| TACGTCAA | -0.00876 |
| AACCCAGA | -0.196 |
| ACCATTAA | 0.0643 |
| ATTCCTTA | -0.079 |
| AACTAATG | -0.0283 |
| CCACTATC | -0.0843 |
| GTTTGCTA | -0.032 |
| GTAACATA | 0.0905 |
| GTATGACA | 0.0872 |
| ATGAGAGC | -0.157 |
| ATCATTGA | 0.058 |
| CTTCCGCC | -0.242 |
| GAACTTAA | 0.0461 |
| TTAACGAA | 0.411 |
| AGGCACGC | -0.216 |
| CATAGTAC | 0.044 |
| GAACCCTC | -0.0601 |
| GGTTCCGA | -0.00514 |
| CTTGTAGA | -0.204 |
| CAGTTTCA | -0.261 |
| CGTCTATC | 0.0638 |

| Sequence | PBM E-score |
| --- | --- |
| CGAACTAG | 0.0807 |
| GTACCCAC | 0.0838 |
| ATCACCAA | -0.0324 |
| CCCGGACG | -0.147 |
| AGACCGCC | -0.214 |
| CCCAGAGG | -0.261 |
| CGCATTTA | 0.0806 |
| ATCCCACC | -0.192 |
| TTCCGCAA | 0.0876 |
| AGGCGCAA | -0.0168 |
| ATCCGAAG | 0.235 |
| ATATCCCG | 0.0712 |
| CTCAGATA | 0.0426 |
| AACTTCGA | 0.043 |
| AATAACAT | 0.111 |
| AGAACGTG | -0.0515 |
| CAGGCGCA | -0.24 |
| AAGTATGT | -0.206 |
| CTTATTGC | -0.183 |
| TTGCGCAA | -0.061 |
| TAGGCGGA | -0.0412 |
| AGCAGTGC | -0.187 |

| Sequence | PBM E-score |
| --- | --- |
| CGGTGGGC | -0.177 |
| CAACCTTG | -0.22 |
| AATTTACT | -0.0675 |
| ACATCGAC | 0.00478 |
| TAGGGTCA | -0.127 |
| GTCCTACA | -0.0351 |
| GGACGTTA | -0.153 |
| ACTTGATC | -0.226 |
| AGCATAAG | -0.165 |
| ATCACATC | -0.158 |
| AATCTGTA | -0.096 |
| GGTATCCA | 0.0334 |
| AAACATCT | -0.145 |
| ACATCCTG | -0.0643 |
| AACTAGCA | -0.117 |
| GTTGGTCA | -0.0128 |
| AGTAATCG | 0.118 |
| AGACTGCT | -0.156 |
| AGATCTGC | -0.0769 |
| GCGTTCCC | 0.104 |
| ACCATCAC | -0.00767 |
